# Assay results published in PubChem BioAssay AID686979 (National Center for Advancing Translational Sciences (NCATS), 2013).
# Hit rate of the full screen: of about 420,000 compounds, about 50,000 (12%) were called active. Inconclusive means that the source gave no clear call. Such entries were picked first, then a sample of the others. Calls follow the shape of the dose curve; as a rule, active = well fitted inhibition curve with a large enough effect; inconclusive = small, poorly fitted or top-dose-only effect; inactive = flat fitted curve, though single readings scatter. Potencies of inconclusive entries are left out as doubtful fits.
# Experiment: qHTS for Inhibitors of human tyrosyl-DNA phosphodiesterase 1 (TDP1): qHTS in cells in presence of CPT; also: nearly all actives have a fitted effect of over 55% in size
# Details: chicken DT40 Tdp1-/-;hTDP1 cells + 20 nM CPT, ATP luminescence, 48 h; series mostly up to 46.2 µM
# In short: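 Chicken DT40 Tdp1-/- cells stably complemented with human TDP1 were seeded at 400 cells/well in medium containing 20 nM camptothecin, exposed to pin-transferred compounds, and grown at 37 °C for at least 48 hr. Viability was read as ATP luminescence.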
# Potency is read from the fitted curve at half-maximal effect; tags tell the direction and shape of the fitted curve.
row,SMILES,Potency
1,CC(=O)Nc1c(-c2cc(=O)oc3cc(C)ccc23)oc2ccccc12,"inconclusive [inhibitor, single point]"
2,CC1CC(C)(C)NC(=S)N1CC(=O)NCc1ccc(Cl)cc1 (centres undefined),inactive
3,O=C1ON=C(c2ccccc2)/C1=C/c1ccc(O)c(O)c1,"inconclusive [inhibitor, single point]"
4,CCNC(=S)NNC(=O)CSc1nc2ccccc2n1C,inactive
5,CCOc1ccc(-c2c(C(=O)N/N=C/c3cccc(Br)c3)nnn2-c2nonc2N)cc1,"inconclusive [inhibitor, single point]"
6,CN1C(=O)[C@H]2[C@@H](/C=C/c3ccccc3)N3C(=O)CN(Cc4ccccc4)C(=O)[C@@]3(C)[C@H]2C1=O,inactive
7,Cn1c(SCCN2CCCC2)nnc1C1CCN(S(=O)(=O)c2cccc(F)c2)CC1,inactive
8,O=C(CN1c2cccc3cccc(c23)S1(=O)=O)N1CCN(c2ccccc2)CC1,inactive
9,O=C(CSc1nnc(-c2ccncc2)n1-c1ccccc1)Nc1ccc(Cl)c(Cl)c1,"inconclusive [inhibitor, partial curve, poor fit]"
10,Cc1cc(O)c(C(=O)/C=C/c2ccccc2O)c(=O)o1,active: 23.1 µM
11,CCN1C(=O)CC(N2CCN(c3ccc(C(=O)c4ccncc4)cc3)CC2)C1=O (centres undefined),"inconclusive [inhibitor, single point]"
12,Cc1cccc(OCCn2c(CCNC(=O)C3CCCCC3)nc3ccccc32)c1,"inconclusive [inhibitor, single point]"
13,Cc1cc(OC(=O)c2cc(C(F)(F)F)cc(C(F)(F)F)c2)c([N+](=O)[O-])c(=O)[nH]1,inactive
14,COc1cc(Cl)ccc1OCc1cc(C(=O)N(C)CCc2c(C)n[nH]c2C)no1,"inconclusive [inhibitor, single point]"
15,O=C(c1ccc(Cl)cc1Cl)N1CCOCC1,inactive
16,O=C(Cn1c(-c2cccs2)cc2ccccc21)N1CCN(c2ccccc2F)CC1,"inconclusive [inhibitor, single point]"
17,COc1ccccc1CCCNC(=O)C1CCC(=O)N(CCc2cccc(F)c2)C1 (centres undefined),"inconclusive [inhibitor, single point]"
18,Clc1ccc(CCNc2nc3ccccc3c3nc(-c4ccccc4)nn23)cc1,"inconclusive [inhibitor, single point]"
19,COc1cccc(/C=C2\Oc3cc(OCC(=O)N4CCCCC4)ccc3C2=O)c1OC,"inconclusive [inhibitor, single point]"
